Test results as given in paper PMC3840166.
Results are given in words; binding and its absence hold for the method and conditions named. In cells and extracts the contact can be indirect. Some entries that bind do so weakly or less than the wild type.

Chains of the proteins cited; added tags and fusions are not shown. Lines headed by an entry give the natural chain unless they say otherwise; changes in a name come on top. Residues count along the entry.
UniProt P13051: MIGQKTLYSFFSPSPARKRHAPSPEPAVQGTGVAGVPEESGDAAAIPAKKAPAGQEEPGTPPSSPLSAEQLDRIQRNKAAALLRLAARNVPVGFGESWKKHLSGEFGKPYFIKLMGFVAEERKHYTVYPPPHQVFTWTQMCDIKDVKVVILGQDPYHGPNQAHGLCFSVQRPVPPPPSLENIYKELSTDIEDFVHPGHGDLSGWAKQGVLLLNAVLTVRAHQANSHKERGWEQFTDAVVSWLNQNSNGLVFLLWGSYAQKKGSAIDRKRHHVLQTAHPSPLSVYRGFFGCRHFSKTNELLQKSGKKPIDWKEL
Flag–UngΔ(152–313)–EYFP1–154: residues 1-151 of P13051
Flag–Ung Δ(1-84)–EYFP1–154: residues 85-313 of P13051
UniProt P10644: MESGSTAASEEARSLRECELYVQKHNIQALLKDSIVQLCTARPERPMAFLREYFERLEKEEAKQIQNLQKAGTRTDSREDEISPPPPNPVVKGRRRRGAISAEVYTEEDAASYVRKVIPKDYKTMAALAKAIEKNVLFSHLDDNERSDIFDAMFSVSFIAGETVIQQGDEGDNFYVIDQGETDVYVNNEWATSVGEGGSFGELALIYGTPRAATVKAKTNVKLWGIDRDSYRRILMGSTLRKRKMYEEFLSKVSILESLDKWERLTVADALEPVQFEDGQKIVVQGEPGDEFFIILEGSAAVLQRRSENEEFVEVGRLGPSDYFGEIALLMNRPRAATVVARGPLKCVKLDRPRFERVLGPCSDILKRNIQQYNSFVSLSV
UniProt P27694: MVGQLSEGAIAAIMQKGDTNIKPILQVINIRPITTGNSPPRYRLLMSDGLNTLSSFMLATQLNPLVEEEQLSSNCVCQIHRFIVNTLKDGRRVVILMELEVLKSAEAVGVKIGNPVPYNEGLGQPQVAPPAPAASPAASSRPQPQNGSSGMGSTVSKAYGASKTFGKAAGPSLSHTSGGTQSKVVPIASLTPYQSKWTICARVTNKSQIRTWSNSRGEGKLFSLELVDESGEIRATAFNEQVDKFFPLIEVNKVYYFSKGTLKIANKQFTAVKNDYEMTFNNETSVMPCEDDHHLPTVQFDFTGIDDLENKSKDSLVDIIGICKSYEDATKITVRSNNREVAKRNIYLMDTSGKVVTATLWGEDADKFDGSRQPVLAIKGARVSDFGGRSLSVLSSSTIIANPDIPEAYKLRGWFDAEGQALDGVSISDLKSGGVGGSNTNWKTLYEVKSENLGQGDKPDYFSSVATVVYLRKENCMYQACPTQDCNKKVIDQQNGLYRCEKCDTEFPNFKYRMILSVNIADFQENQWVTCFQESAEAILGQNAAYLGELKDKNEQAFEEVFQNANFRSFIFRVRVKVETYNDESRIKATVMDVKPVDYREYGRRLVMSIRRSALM
UniProt P31946: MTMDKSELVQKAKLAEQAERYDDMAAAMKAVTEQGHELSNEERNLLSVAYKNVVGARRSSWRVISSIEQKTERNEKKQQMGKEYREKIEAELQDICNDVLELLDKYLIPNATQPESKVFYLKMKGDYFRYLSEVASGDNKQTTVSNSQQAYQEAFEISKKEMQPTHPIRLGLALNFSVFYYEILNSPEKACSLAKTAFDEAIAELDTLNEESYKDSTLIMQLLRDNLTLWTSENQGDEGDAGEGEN
UniProt P61981: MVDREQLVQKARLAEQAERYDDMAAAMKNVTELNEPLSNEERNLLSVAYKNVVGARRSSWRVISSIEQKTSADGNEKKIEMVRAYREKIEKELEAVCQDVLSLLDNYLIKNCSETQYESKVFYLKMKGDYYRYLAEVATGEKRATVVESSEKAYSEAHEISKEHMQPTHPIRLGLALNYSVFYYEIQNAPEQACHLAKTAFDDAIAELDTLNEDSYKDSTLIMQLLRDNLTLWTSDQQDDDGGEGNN
UniProt P62258: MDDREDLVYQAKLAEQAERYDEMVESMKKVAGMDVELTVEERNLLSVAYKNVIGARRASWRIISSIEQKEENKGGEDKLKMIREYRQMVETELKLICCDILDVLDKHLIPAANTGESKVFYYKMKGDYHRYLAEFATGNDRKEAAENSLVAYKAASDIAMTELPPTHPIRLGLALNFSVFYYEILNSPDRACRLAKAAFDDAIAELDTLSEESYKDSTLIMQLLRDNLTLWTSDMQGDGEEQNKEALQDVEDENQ
UniProt P63104: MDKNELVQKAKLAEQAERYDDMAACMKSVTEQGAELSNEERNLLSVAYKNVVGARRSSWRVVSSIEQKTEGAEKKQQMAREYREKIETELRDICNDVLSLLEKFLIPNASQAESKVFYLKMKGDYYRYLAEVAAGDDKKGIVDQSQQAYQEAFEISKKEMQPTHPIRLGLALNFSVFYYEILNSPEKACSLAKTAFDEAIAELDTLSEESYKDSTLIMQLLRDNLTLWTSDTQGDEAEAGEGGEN
UniProt Q04917: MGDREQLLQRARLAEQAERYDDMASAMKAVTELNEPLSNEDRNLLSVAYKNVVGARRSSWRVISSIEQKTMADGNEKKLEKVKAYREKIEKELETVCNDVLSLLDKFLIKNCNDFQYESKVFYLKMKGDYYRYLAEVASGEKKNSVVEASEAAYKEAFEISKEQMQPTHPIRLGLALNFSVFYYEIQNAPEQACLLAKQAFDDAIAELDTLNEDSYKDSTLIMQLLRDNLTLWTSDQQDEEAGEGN
UniProt P31947: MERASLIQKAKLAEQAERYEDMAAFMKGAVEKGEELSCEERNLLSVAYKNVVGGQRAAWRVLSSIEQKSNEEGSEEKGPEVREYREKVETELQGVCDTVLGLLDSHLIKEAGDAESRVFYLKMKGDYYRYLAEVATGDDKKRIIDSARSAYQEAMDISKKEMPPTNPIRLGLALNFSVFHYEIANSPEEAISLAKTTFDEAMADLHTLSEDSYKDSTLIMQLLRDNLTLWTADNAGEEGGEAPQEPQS
UniProt P27348: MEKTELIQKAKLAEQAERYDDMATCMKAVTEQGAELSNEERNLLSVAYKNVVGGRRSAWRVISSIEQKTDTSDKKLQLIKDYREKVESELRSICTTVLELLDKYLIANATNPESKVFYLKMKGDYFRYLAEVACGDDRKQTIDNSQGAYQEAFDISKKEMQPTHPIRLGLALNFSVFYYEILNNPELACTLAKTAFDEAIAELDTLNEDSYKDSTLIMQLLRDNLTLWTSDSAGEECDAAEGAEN

Experiments:
[1] = molecular target: Flag–Ung Δ(1-84)–EYFP1–154 (UniProt P13051); test: split reporter
Flag–PKA-RIα–EYFP1–154 [2] = molecular target: Flag–PKA-RIα–EYFP1–154 (UniProt P10644); test: split reporter
[3] = molecular target: Flag–UngΔ(152–313)–EYFP1–154 (UniProt P13051); test: split reporter
Flag–Ung–EYFP1–154 = Flag–Ung–EYFP1–154 (UniProt P13051); test: split reporter
Flag–RPA1–EYFP1–154 [4] = molecular target: Flag–RPA1–EYFP1–154 (UniProt P27694); test: split reporter
Flag–PKA-RIα–EYFP1–154 [5] = molecular target: Flag–PKA-RIα–EYFP1–154 (UniProt P10644); test: split reporter; EYFP1–154 and EYFP155–238 fusions coexpressed in human HeLa cells (Lipofectamine); EYFP+ cells by flow cytometry (24 hours in the methods; 24 or 48 hours in the legend of Figure 1) or EYFP imaged by confocal microscopy (36 hours)
Flag–RPA1–EYFP1–154 [6] = molecular target: Flag–RPA1–EYFP1–154 (UniProt P27694); test: as above

| Substance | binding [1] | binding (Flag–PKA-RIα–EYFP1–154 [2]) | binding [3] | binding (Flag–Ung–EYFP1–154) | binding (Flag–RPA1–EYFP1–154 [4]) | binding (Flag–PKA-RIα–EYFP1–154 [5]) | binding (Flag–RPA1–EYFP1–154 [6]) |
| --- | --- | --- | --- | --- | --- | --- | --- |
| HA–14-3-3β–EYFP155–238 (from UniProt P31946 1-246) | binds | binds | no binding | binds | no binding | – | – |
| HA–14-3-3γ–EYFP155–238 (from UniProt P61981 1-247) | binds | binds | no binding | binds | no binding | – | – |
| HA–14-3-3ε–EYFP155–238 (from UniProt P62258 1-255) | binds | binds | no binding | binds | no binding | – | – |
| HA–14-3-3ζ–EYFP155–238 (from UniProt P63104 1-245) | binds | binds | no binding | binds | no binding | – | – |
| HA–14-3-3η–EYFP155–238 (from UniProt Q04917 1-246) | binds | binds | no binding | binds | no binding | – | – |
| HA–14-3-3σ–EYFP155–238 (from UniProt P31947 1-248) | binds | – | no binding | binds | – | binds | no binding |
| HA–14-3-3τ–EYFP155–238 (from UniProt P27348 1-245) | binds | binds | no binding | binds | no binding | – | – |
